From PubChem BioAssay AID1347073 (National Center for Advancing Translational Sciences (NCATS), 2019)
Screen size: about 45,000 compounds; about 200 (0.44%) were called active. Not shown: some 7% with an inconclusive outcome. Calls come from the whole dose curve; as a rule, active = well fitted activation curve with a large enough effect; inconclusive = small, poorly fitted or top-dose-only effect; inactive = no such curve, though single readings can be large or run the other way. Some of the results follow.

experiment: qHTS of TDP-43 Inhibitors: NCGC Sytravon Library Screen; conditions: yeast TDP-43 toxicity rescue, BacTiter-Glo growth, 24 h; series mostly up to 46.1 µM; growth rescue (activation): at the top concentration; note: 0% is about no effect; nearly all actives have a fitted effect of over 55% in size
In short: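 TDP-43-expressing yeast, pregrown in raffinose, seeded at OD600 0.02 in galactose medium with compound for 24 hr at 30 deg C. Growth read by BacTiter-Glo luminescence, so rescue of toxicity appears as activation.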

| Structure (SMILES) | growth rescue (activation) |
| --- | --- |
| COc1ccc(NC(=O)c2ccco2)cc1NC(=O)c1ccccc1[N+](=O)[O-] | inactive: -9.23% |
| Cc1ccc(S(=O)(=O)N2CCC(C(=O)Nc3nnc(C)s3)CC2)cc1 | inactive: -4% |
| Cc1cnc(C(=O)N2CCCC(C(=O)c3ccc(C(C)(C)C)cc3)C2)cn1 (centres undefined) | inactive: 9.14% |
| Cn1c(=O)c2c(ncn2CC(=O)N/N=C/C=C/c2ccccc2)n(C)c1=O | inactive: 14.7% |
| O=C(NCCSCc1ccccc1)c1ccccc1 | inactive: 28.2% |
| CN(C(=O)CSc1nc2cc(Cl)ccc2c(=O)n1Cc1ccco1)C1CCS(=O)(=O)C1 (centres undefined) | inactive: -3.89% |
| COc1ccccc1S(=O)(=O)N1CCN(S(=O)(=O)c2ccccc2C#N)CC1 | inactive: -1.76% |
| Cc1c(NC(=O)/C=C/c2cn(-c3ccccc3)nc2-c2ccccc2)c(=O)n(-c2ccccc2)n1C | inactive: 10.5% |
| COCCNC(=O)C1CCCN(C(=O)c2ccc(SC(F)(F)F)cc2)CC1 (centres undefined) | inactive: -8.4% |
| COc1ccccc1C1/C(=C(/O)c2ccccc2)C(=O)C(=O)N1CC(C)O (centres undefined) | inactive: 19.6% |
| CC(=O)c1cccc(-c2ccnc3c2CC(C(=O)NCc2ccc(N4CCN(C)CC4)cc2)O3)c1 (centres undefined) | inactive: 5.81% |
| CCCCOC(=O)n1c(=O)oc2ccc(S(=O)(=O)N3CCCCC3)cc21 | inactive: 17.8% |
| COc1cccc(NC(=O)c2ccc(-c3ccc([N+](=O)[O-])cc3)o2)c1 | inactive: -15.3% |
| O=C(O)/C=C\C(=O)NNC(=O)c1cc(-c2ccccc2)n[nH]1 | inactive: 14.8% |
| CC(=O)Nc1ccc(CN2CCN(CCC(C)C)C(CCO)C2)cc1 (centres undefined) | inactive: -13.4% |
| CC1(C)CC(=O)C=C(NNC(=O)OC(C)(C)C)C1 | inactive: 10.2% |
| CN(C)Cc1nc2ccccc2c(=O)n1Cc1nc(C(C)(C)C)cs1 | inactive: 21.4% |
| Cc1ccc(NC(=O)c2ccc(OCc3c(C)noc3C)cc2)cc1C | inactive: -1.92% |
| CCc1ccc(C(=O)Cn2ccsc2=N)cc1 | inactive: -28% |
| Cc1ccc(CSc2nnc(SCC(=O)N/N=C/C=C/c3ccccc3[N+](=O)[O-])s2)cc1 | inactive: 1.32% |
| Cc1cc(C)c(C#N)c(N2CCC(C(N)=O)CC2)n1 | inactive: -4.3% |
| CCOC(=O)Cc1n[nH]c(=O)c2ccccc12 | inactive: 6.07% |
| CCc1nc2nc(C)c(NS(=O)(=O)c3ccc(Br)s3)c(=O)n2[nH]1 | inactive: -17.1% |
| CCOc1ccc(N/C(N)=N/c2nc(CSc3nnc(C)s3)cc(=O)[nH]2)cc1 | inactive: 2.33% |
| O=C(NNC(=O)c1ccccc1F)c1ccco1 | inactive: -13.8% |
| CCn1cnc2cc(NC(=O)COc3ccc(C)cc3)ccc21 | inactive: 0.401% |

| Structure (SMILES) | growth rescue (activation) |
| --- | --- |
| COCCCNC(=S)NCCNc1nc2cc(C)c(C)cc2cc1C#N | inactive: 14.1% |
| Clc1cccc(C2CCN(Cc3nc(CC4CC4)no3)C2)c1 (centres undefined) | inactive: 23.7% |
| Nc1cc2ccccc2oc1=O | inactive: 36.5% |
| COc1ccc(S(=O)(=O)/N=C2\C=C(NS(=O)(=O)c3ccccc3)C(=O)c3ccccc32)cc1 | inactive: 20.2% |
| COc1ccc(NS(=O)(=O)c2cc(NC(=O)c3cnc(C)cn3)ccc2N2CCCCC2)cc1 | inactive: 12.2% |
| O=[N+]([O-])c1ccc(C[n+]2ccc(Cc3ccccc3)cc2)cc1 | inactive: 7.94% |
| COc1ccccc1NC(=O)Cn1c2ccc(F)cc2c2nc3n(c(=O)c21)CCS3 | inactive: 12.9% |
| Cc1ccc(NC(=O)C2=NNC(=O)CC2)cc1S(=O)(=O)Nc1ccc(SC(F)F)cc1 | inactive: 10.6% |
| Cc1cc(N2C(=O)C(O)=C(C(=O)c3cc4ccccc4o3)C2c2cccs2)no1 (centres undefined) | inactive: -10.9% |
| COCC(C)n1c(C)cc(C(=O)CSc2nnc(N)s2)c1C (centres undefined) | inactive: 1.83% |
| CN1C(=O)c2oc3ccccc3c(=O)c2C1c1cccnc1 (centres undefined) | inactive: -66.7% |
| COc1cc(/C=N/NC(=O)CNc2n[nH]c(=O)[nH]c2=O)ccc1O | inactive: 6.29% |
| CN(C(=O)COC(=O)c1ccc(=O)n(Cc2ccccc2)n1)c1ccccc1 | inactive: 1.86% |
| CC(C)NC(=O)C1Cc2c(-c3ccc4c(c3)OCO4)ccnc2O1 (centres undefined) | inactive: 13.9% |
| Cc1noc(C)c1S(=O)(=O)N1CCCC1C(=O)O (centres undefined) | inactive: 2.91% |
| CC(C)Cn1c(SCC(=O)N2CCCc3ccccc32)nc2ccccc2c1=O | inactive: 5.82% |
| Cc1cccc(N(C)C(=O)CCS(=O)(=O)c2ccc3c(c2)n(C)c(=O)c(=O)n3C)c1 | inactive: 9.25% |
| Cc1nn(CC(=O)NCCCN2CCCC2=O)c(C)c1[N+](=O)[O-] | inactive: -49% |
| CNS(=O)(=O)c1cccc(C(=O)OCC(=O)c2cc(C)n(-c3ccc4c(c3)OCO4)c2C)c1 | inactive: -8.14% |
| Cc1ccc(-c2cnc(-c3ccccc3C(=O)O)o2)cc1 | inactive: -34.3% |
| COc1ccc(NC(=O)NC(C)c2c(-n3cccc3)sc(C)c2C)cc1OC (centres undefined) | inactive: 1.24% |
| CC(=O)c1ccccc1NC(=O)CSc1nc2ccccc2c(=O)n1CCCN1CCOCC1 | inactive: 7.9% |
| CCn1c(SCC(=O)Nc2cccc(O)c2)nc2c1c(=O)n(C)c(=O)n2C | inactive: -13.6% |
| CC(=O)Nc1cccc(NC(=S)Nc2ccc(F)c(Cl)c2)c1 | inactive: -3.34% |
| Cc1ccc(NC(=O)Cc2cc(C(=O)O)c3ccccc3n2)c(C)c1 | inactive: -3.74% |
| CCOC(=O)C1CCCN(Cc2nc(CC3CC3)no2)C1 (centres undefined) | inactive: -0.587% |

| Structure (SMILES) | growth rescue (activation) |
| --- | --- |
| Cc1ccc(S(=O)(=O)NCCc2nc3ccccc3[nH]2)cc1 | inactive: -1.67% |
| Cc1ccc(/C(=N\S(=O)(=O)c2ccc(Br)cc2)Nc2ccccc2C)cc1 | inactive: 10.8% |
| CCOc1ccc(CCNC(=O)CN2C(=O)CCSc3ccccc32)cc1OCC | inactive: -18% |
| Cc1cc(C)n(C2CCCCC2OC(=O)CCc2ccccc2)n1 (centres undefined) | inactive: 21.6% |
| CC(C(=O)Nc1cccc([N+](=O)[O-])c1)N1C(=O)NC2(CCCC2)C1=O (centres undefined) | inactive: 16% |
| CN(C)CCNC(=O)c1ccccc1-c1cc2ccccc2c(=O)o1 | inactive: 3.79% |
| CCOC(=O)C1(CCOc2ccccc2)CCN(Cc2ccc3c(c2)OCCO3)CC1 | inactive: -15.4% |
| CC(=O)c1cccc(NC(=O)C2Cc3c(-c4cccc(C(N)=O)c4)ccnc3O2)c1 (centres undefined) | inactive: 5.95% |
| CC1=C(C(=O)OC(C)C)C(c2ccco2)NC(=O)N1 (centres undefined) | inactive: 10.6% |
| COC(=O)c1cc(CNC(=O)CCCSc2ccccc2)ccc1OC | inactive: -19.1% |
| CN(C)S(=O)(=O)c1cccc(NC(=O)COC(=O)[C@H](Cc2ccccc2)NC(=O)c2ccco2)c1 | inactive: 20.7% |
| COc1cccc(-c2cnc3c(NC=O)cc(-c4ccc(N5CCN(C)CC5)cc4)cn23)c1 | inactive: 17.2% |
| Cc1ccc(C(=O)N/C(=C\c2ccccc2)C(=O)NCc2ccncc2)cc1 | inactive: 33% |
| COc1ccc([N+](=O)[O-])cc1N(CC(O)CN1CCCC1)S(=O)(=O)c1ccc(C)cc1 (centres undefined) | inactive: -0.836% |
| Cc1cc(C)c(C)c(S(=O)(=O)N2CCC(C(=O)OCC(=O)NC3CCS(=O)(=O)C3)CC2)c1C (centres undefined) | inactive: 2.8% |
| Cc1cccc(OCC(=O)NCC(=O)N/N=C/c2cc(Br)ccc2OCc2ccccc2)c1 | inactive: 6.14% |
| Cc1ccc(-c2nnc(CCC(=O)N(C)Cc3nccs3)o2)s1 | inactive: 9.35% |
| CCN(CC)S(=O)(=O)c1ccc(/C=C/C(=O)OCC(=O)NC(=O)C2COc3ccccc3O2)cc1 (centres undefined) | inactive: 16.6% |
| O=C(Oc1ccc2c(c1)O/C(=C\c1ccncc1)C2=O)c1ccccc1 | inactive: -20.4% |
| Cc1ccc(SCC(=O)N(C)C2CCS(=O)(=O)C2)c(C)c1 (centres undefined) | inactive: -45.9% |
| O=C(c1ccco1)N1CCN(Cc2nnc(-c3cccc(Br)c3)o2)CC1 | inactive: 5.54% |
| Cc1ccc(S(=O)(=O)/N=C2\C=C(NS(=O)(=O)c3ccccc3)C(=O)c3ccccc32)cc1 | inactive: 19% |
| O=C(O)C(Oc1ccc2c(-c3ccccc3)cc(=O)oc2c1)c1ccccc1 (centres undefined) | inactive: 29.5% |
| CCc1ccc(/C=C(\C#N)C(=O)NC2CCS(=O)(=O)C2)cc1 (centres undefined) | inactive: -23.5% |
| COc1ccc(C(=O)CSc2nnc(C(CO)NC(=O)c3ccc(OC)cc3)n2C)cc1 (centres undefined) | inactive: 7.4% |
| COc1cc(/C=N/n2c(-c3cc(C)[nH]n3)n[nH]c2=S)ccc1O | inactive: 1.06% |

| Structure (SMILES) | growth rescue (activation) |
| --- | --- |
| CC1CC(C)CN(CCCNS(=O)(=O)c2cc(Br)cc3c2N(C(=O)C2CC2)CC3)C1 (centres undefined) | inactive: -2.75% |
| O=C(CCl)NN=C(c1ccccc1)c1ccccc1 | inactive: -8.98% |
| O=C(Cn1c(=O)c2c3c(sc2n(Cc2ccccc2)c1=O)CCCC3)NCCO | inactive: -5.81% |
| Cc1ccc(O)c(NC(=O)c2cc(-c3ccco3)on2)c1 | inactive: 19.7% |
| CNc1nc(NCCOc2ccccc2Cl)c2sccc2n1 | inactive: 1.76% |
| COc1ccccc1NC(=O)c1ncn(-c2ccccc2)n1 | inactive: 26.3% |
| COc1ccc(NC(=S)N2CCC(NC(=O)c3ccccc3C)CC2)cc1 | inactive: 10.1% |
| O=C(O)c1ccnc(Cl)c1 | inactive: 7.82% |
| O=C(CNCc1ccco1)Nc1cc(S(=O)(=O)N2CCOCC2)ccc1N1CCOCC1 | inactive: 5.94% |
| Cc1ccccc1NC(=O)c1cc[n+]([O-])cc1 | inactive: 17.3% |
| O=C(CCN1C(=O)C2C3CCC(C3)C2C1=O)Nc1ccc(F)cc1 (centres undefined) | inactive: 7.34% |
| Cc1cc(Cl)ccc1NC(=S)NCc1ccccc1Cl | inactive: 22.3% |
| Cc1ccc(Cn2c(CN3CCC(C(=O)O)CC3)cc3ccccc32)cc1 | inactive: 22.6% |
| C=CCn1c(SCc2csc(C)n2)nc2sc3c(c2c1=O)CCCC3 | inactive: 47.9% |
| CC1(C)Cc2ccccc2C2=NNC(=O)C2=N1 | inactive: -3.11% |
| CCc1nc2c(c(=O)c3ccccc3n2C)c(=O)n1C1CCCCCC1 | inactive: 17.2% |
| Cc1ccc(-c2noc(C3CCCN(C(=O)c4ccc(Cl)cc4)C3)n2)o1 (centres undefined) | inactive: 12.6% |
| CC(C)(C)c1cc(C(=O)NCC(=O)OCC(=O)c2cccc([N+](=O)[O-])c2)cc(C(C)(C)C)c1 | inactive: -14.6% |
| Cc1ccc(NC(=S)N(CCN2CCOCC2)Cc2cc3cc4c(cc3[nH]c2=O)OCO4)cc1 | inactive: -7.56% |
| CCCCN(C=O)c1c(CC)nc2c(OCCC3CCCCC3)cccn12 | inactive: -0.967% |
| CCN(CC)S(=O)(=O)c1ccc(C(=O)NC2=NCCS2)cc1 | inactive: 16.2% |
| Cc1ccc(OCC(=O)N(C)C2CCCCC2)c([N+](=O)[O-])n1 | inactive: 11.7% |
| Cc1ccc2[nH]c(=O)c(CN(CCCO)C(C)c3nnnn3Cc3ccco3)cc2c1 (centres undefined) | inactive: 1.03% |
| CC1(C(=O)OCC(=O)Nc2ccc(S(=O)(=O)N3CCOCC3)cc2)CC1(Cl)Cl (centres undefined) | inactive: 0.431% |
| Cc1nn(-c2ccc(F)cc2)c(C)c1CN1CCN(CCC(C)C)C(CCO)C1 (centres undefined) | inactive: -3.95% |
| O=[N+]([O-])c1cc(S(=O)(=O)N2CCCC2)ccc1N/N=C/c1ccccn1 | inactive: 14.8% |
